“And” between values parts separate entries of the source, which are not always exact repeats. Equal entries are not always repeated. About 2,100 (0.6%) of roughly 350,000 compounds were called active. Inconclusive results, whose numbers are uncertain, are shown with a selection of clear calls.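 How the source made its calls: active means activity change of -60% or lower, but not beyond a set lower limit; inconclusive means change between -60% and -40%, or beyond the set limit; inactive means change above -40%.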
biological target: Relaxin receptor 1 (Homo sapiens) (UniProt Q9HBX9); assay: qHTS Assay for Antagonists of the Relaxin Receptor RXFP1; settings: HEK293-RXFP1, relaxin-stimulated cAMP HTRF, 30 min; at 57.5 µM; stronger effect = lower value
On the % scale 0 is the no-effect control and ±100 the full control effect.

UniProt Q9HBX9, sequence (Q9HBX9 whole entry, looked up): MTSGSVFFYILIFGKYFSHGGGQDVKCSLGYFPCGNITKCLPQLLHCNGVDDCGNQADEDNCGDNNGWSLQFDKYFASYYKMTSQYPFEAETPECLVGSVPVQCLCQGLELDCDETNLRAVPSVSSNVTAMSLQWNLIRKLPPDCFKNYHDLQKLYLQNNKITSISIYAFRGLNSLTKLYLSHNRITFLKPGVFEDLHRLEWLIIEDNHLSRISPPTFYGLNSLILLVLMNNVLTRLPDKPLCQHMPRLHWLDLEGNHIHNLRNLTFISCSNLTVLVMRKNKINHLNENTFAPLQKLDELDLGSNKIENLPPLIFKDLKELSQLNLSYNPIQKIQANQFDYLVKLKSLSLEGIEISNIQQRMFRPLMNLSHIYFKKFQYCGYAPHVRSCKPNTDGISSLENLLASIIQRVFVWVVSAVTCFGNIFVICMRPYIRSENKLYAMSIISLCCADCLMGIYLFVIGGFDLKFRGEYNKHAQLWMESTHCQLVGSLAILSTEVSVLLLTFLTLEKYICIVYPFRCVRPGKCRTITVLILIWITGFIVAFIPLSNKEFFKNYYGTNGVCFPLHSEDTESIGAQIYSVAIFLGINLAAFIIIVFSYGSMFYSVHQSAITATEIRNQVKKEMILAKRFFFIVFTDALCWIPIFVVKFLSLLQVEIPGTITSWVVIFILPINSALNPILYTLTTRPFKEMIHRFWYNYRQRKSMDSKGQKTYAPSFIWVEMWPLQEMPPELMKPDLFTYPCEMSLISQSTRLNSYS

| Compound | activity change, negative = inhibition |
| --- | --- |
| C=CCOC(=O)c1ccc(-n2cnc(C)n2)nc1 | inconclusive: -42.1% |
| CCOc1ccc(C(C(=O)NCC2CCCO2)N(C(=O)c2snc(C(N)=O)c2N)c2ccccc2F)cc1 (centres undefined) | inconclusive: -41.8% |
| COc1ccc(NS(=O)(=O)c2ccc3[nH]c4c(c3c2)CCCCC4)cc1 | inconclusive: -42.6% |
| CC(=O)c1ccc(-n2c(-c3cc(-c4ccco4)[nH]n3)n[nH]c2=S)cc1 | inconclusive: -42.6% |
| NC(=O)c1cccn1-c1ncc(C(F)(F)F)cc1Cl | inconclusive: -45% |
| CN(C)CCCNc1cc(C(C)(C)C)nc2c(-c3ccccc3)cnn12 | active: -60.5% |
| Cc1ncc([N+](=O)[O-])n1C | inactive: 6.43% |
| Cc1c(-c2n[nH]c(=S)n2-c2ccc(Br)cc2)nnn1-c1ccc(Cl)cc1 | inconclusive: -51.2% |
| Cc1ccc(NC(=O)c2sc(-n3nc(C)c(Cc4ccc5c(c4)OCO5)c3C)nc2C)cc1Cl | inactive: -4.95% |
| CCOC(=O)c1ccc(NC(=O)Cn2ncc(Cl)c(Cl)c2=O)cc1 | inactive: -25.5% |
| CCc1nc(C)cn1S(=O)(=O)c1ccc(Cl)c(Cl)c1OC | inactive: -1.38% |
| COC(=O)c1cc(C)nc2c1c(=O)nc(SCc1ccccc1Cl)n2C1CC1 | inconclusive: -53.8% |
| COc1ccccc1N1CCN(/N=C/C(Cl)=C/c2ccccc2)CC1 | inconclusive: -44.6% |
| CCOc1nc(C)ccc1-c1noc(-c2ccccn2)n1 | inactive: 6.57% |
| CCCCNC(=O)CSc1nc2ccc(N3CCOCC3)cc2c(=O)n1Cc1ccc(OC)cc1 | inactive: 5.01% |
| O=C1CCSC2(C(=O)N(Cc3ccc(F)cc3)c3ccccc32)N1c1cccc(F)c1 (centres undefined) | inconclusive: -54% |
| Cc1cc(C)c2sc(N(CCCN(C)C)C(=O)c3ccc(S(=O)(=O)N(C)Cc4ccccc4)cc3)nc2c1 | inconclusive: -47.5% |
| CC(OC(=O)c1ccc(NC(=O)CC#N)cc1)C(=O)Nc1nc(-c2ccccc2)cs1 (centres undefined) | inconclusive: -50% |
| CC(C)(CNC(=O)/C=C/c1ccc(F)cc1)CNC(=O)/C=C/c1ccc(F)cc1 | inconclusive: -53.9% |
| C=C(CC)C(=O)c1ccc(OCC(=O)O)c(Cl)c1Cl | active: -71.3% |
| COc1ccccc1NC(=O)COC(=O)c1ccccc1SCC(=O)N1CCCC1 | inconclusive: -41.2% |
| CCOc1ccccc1NC(=O)c1ccccc1N(C)S(C)(=O)=O | inactive: -2.57% |
| CN(Cc1nc2ccccc2c(=O)[nH]1)C(=O)c1ccc(S(=O)(=O)N2CCCC2)cc1 | inactive: -2.88% |
| O=C(N/N=C/c1c[nH]c2ccc(Br)cc12)c1ccc2c(c1)OCO2 | inconclusive: -49.6% |
| Cc1nc2ccccc2c(N)c1C(=O)/C=C/c1ccccc1 | active: -83.4% |
| Fc1ccc(N/N=C/c2ccc(N3CCOCC3)cc2)c(F)c1 | inactive: -11.8% |
| Cc1cccc(C(=O)Nc2nc3nc(-c4ccccc4)cc(=O)n3[nH]2)c1 | inactive: -24.2% |

| Compound | activity change, negative = inhibition |
| --- | --- |
| Cc1csc(NC(=O)c2ccc(Cl)cc2[N+](=O)[O-])n1 | inconclusive: -46.4% |
| COc1cc(C2=NOC(C(=O)Nc3c(C)n(C)n(-c4ccccc4)c3=O)C2)cc(OC)c1OC (centres undefined) | inactive: -0.0942% |
| CCOc1ccc2[nH]c3c(N4CCc5ccccc5C4)ncnc3c2c1 | inconclusive: -52.3% |
| O=C(CSCc1ccc(Cl)c(Cl)c1)Nc1c[nH]c(=O)[nH]c1=O | inconclusive: -43.4% |
| CC(C)OC(=O)CSc1nnc(-c2ccc([N+](=O)[O-])cc2)o1 | inconclusive: -56.8% |
| CC(=O)Nc1sc2c(c1C(c1ccccn1)N1CCCC1)CCCC2 (centres undefined) | inactive: -17.2% |
| CN1CCN(/N=C/c2c3ccccc3c(Cl)c3ccccc23)CC1 | inconclusive: -52.1% |
| O=[N+]([O-])c1ccc([C@H](O)[C@H](CO)N=Cc2ccccc2O)cc1 | inconclusive: -58.2% |
| Cc1cccc(C)c1NC(=O)c1ccccc1C(=O)O | inactive: 7.65% and inactive: -2.3% |
| O=C(Nc1cccc(-c2nnc(-c3ccco3)o2)c1)c1ccccc1 | inconclusive: -41.2% |
| CCN(CC)c1ccc(/C=N/NC(=O)c2cccc(S(=O)(=O)N3CCOCC3)c2)c(O)c1 | inconclusive: -52.7% |
| COC(=O)c1nc(NNC(=O)c2ccccc2)sc1-c1ccccc1 | inconclusive: -44.4% |
| Cc1ccccc1CSCCNC(=O)COc1ccc(Cl)cc1 | inconclusive: -43.7% |
| COc1ccc(CCNC(=O)c2ccc3c(c2)N(Cc2ccccc2)CCS3)cc1OC | inconclusive: -54% |
| CCOc1ccc(NCc2cccn2-c2nnc(N3CCC(C(=O)NCCCN4CC(C)CC(C)C4)CC3)s2)cc1 (centres undefined) | inconclusive: -58% |
| COc1ccc(CNC(=O)C2CCN(S(=O)(=O)c3ccc4c(c3)NC(=O)C(C)S4)CC2)cc1 (centres undefined) | inconclusive: -45.9% |
| O=C(COC(=O)/C=C/c1cccc(Cl)c1Cl)Nc1ccc2[nH]c(=O)[nH]c2c1 | inconclusive: -54.1% |
| O=C(N/N=C/C=C/c1ccco1)c1ccccc1Cl | active: -81.7% |
| COC(=O)c1ccccc1S(=O)(=O)N(Cc1cc2ccc(OC)cc2[nH]c1=O)CC1CCCO1 (centres undefined) | inactive: 2.63% |
| CCOc1ccc(C(=O)Nc2cccc(C(C)=O)c2)cc1[N+](=O)[O-] | inconclusive: -40.2% |
| Cc1ccc([N+](=O)[O-])cc1S(=O)(=O)Nc1ccc(C(=O)N(C)C)cc1 | inconclusive: -51.6% |
| COc1ccc(C(NC(=O)C2CCCCC2)c2c(O)ccc3ccccc23)cc1 (centres undefined) | inactive: -35.1% |
| Cc1ccc(S(=O)(=O)n2ccc3c(OCCOCCNCc4ccc(F)cc4)cccc32)cc1 | inconclusive: -44% |
| O=C1C(Cl)=C(NCCCN2CCOCC2)C(=O)N1CCc1ccccc1 | inactive: 8.16% |
| Cc1ccc(C(=O)NC(=S)Nc2ccc(-c3ccc(CO)o3)cc2)cc1 | inconclusive: -49.7% |
| CCOCCOC(=O)c1cccc2c1-c1ccccc1C2=O | inactive: 6.76% |
| O=C(/C=C/c1ccccc1)NC(=S)Nc1ccc(CN2CCOCC2)cc1 | active: -62.7% |
